Over roughly 33,000 sequences, “E-score (-0.5 to 0.5)” has its median near -0.041; the highest 2% begin near 0.37. Some of the results follow.
Each sequence was assayed against T1, Ecm22 (UniProt Q05958) (assay: PBM E-score (8-mer binding enrichment) (E-score (-0.5 to 0.5)); higher = stronger / more preferred TF binding; most listed sequences are background and not binding sites). Details: protein concentration: 200 nM; construct: GST-full length.
T1 sequence: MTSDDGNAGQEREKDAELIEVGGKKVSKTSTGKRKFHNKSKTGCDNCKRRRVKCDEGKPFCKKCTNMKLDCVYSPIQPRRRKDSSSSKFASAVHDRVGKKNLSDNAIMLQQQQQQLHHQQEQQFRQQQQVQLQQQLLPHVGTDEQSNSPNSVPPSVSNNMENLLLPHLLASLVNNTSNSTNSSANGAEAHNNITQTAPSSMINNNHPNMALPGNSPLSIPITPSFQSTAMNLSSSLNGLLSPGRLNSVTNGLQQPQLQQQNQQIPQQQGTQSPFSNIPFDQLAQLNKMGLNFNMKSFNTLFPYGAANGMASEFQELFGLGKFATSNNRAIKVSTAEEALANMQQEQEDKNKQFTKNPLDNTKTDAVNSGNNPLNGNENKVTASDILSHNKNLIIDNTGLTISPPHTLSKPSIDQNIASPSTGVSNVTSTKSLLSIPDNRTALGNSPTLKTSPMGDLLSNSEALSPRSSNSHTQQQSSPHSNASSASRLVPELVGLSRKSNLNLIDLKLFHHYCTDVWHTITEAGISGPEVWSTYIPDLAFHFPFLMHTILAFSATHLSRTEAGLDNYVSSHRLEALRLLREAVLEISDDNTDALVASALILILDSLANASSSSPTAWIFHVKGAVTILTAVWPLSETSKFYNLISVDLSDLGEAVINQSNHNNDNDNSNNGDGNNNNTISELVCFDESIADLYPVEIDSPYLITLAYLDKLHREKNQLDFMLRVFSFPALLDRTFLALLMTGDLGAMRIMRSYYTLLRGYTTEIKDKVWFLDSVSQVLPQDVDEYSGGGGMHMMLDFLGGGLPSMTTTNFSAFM
Outline: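 Masliner-normalised scans of fluorescent anti-GST signal were the basis for scoring. That signal came from GST-tagged yeast transcription factors applied at about 100-200 nM to double-stranded universal all-10-mer Agilent arrays on fresh or once-stripped slides. Each ungapped eight-base word, pooled with its reverse complement, received an E-score from the Universal PBM Analysis Suite.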
In the case of GATCGGAA, the “PBM E-score” value is reported as 0.108. In the case of AAATATCG, the “PBM E-score” value is reported as 0.229. With CGCTGGGA the “PBM E-score” value was -0.0454. In the case of ACCAAGGT, the “PBM E-score” value is reported as -0.083. For TCTGTAAA, the “PBM E-score” value was -0.0281. For ACCATCCT, the “PBM E-score” value was -0.12. In the case of CACCCCAC, the “PBM E-score” value is reported as -0.202. AGTGTTGG was tested, and the “PBM E-score” value was 0.00553. CGAGTACG was tested, and the “PBM E-score” value was 0.392. In the case of CAACTACG, the “PBM E-score” value is reported as 0.0594. In the case of GAGGCGCC, the “PBM E-score” value is reported as 0.0193. In the case of CGTTGTTA, the “PBM E-score” value is reported as 0.0522. In the case of TAGGAAGA, the “PBM E-score” value is reported as -0.189. ACGGATTC was tested, and the “PBM E-score” value was 0.201. TATGCGGA was tested, and the “PBM E-score” value was 0.133. In the case of CGCACGCA, the “PBM E-score” value is reported as 0.141. For GTATTTCA, the “PBM E-score” value was 0.0746. For CAGGGACA, the “PBM E-score” value was -0.0856. For AGCTCGGA, the “PBM E-score” value was 0.135. For GCTGGCCA, the “PBM E-score” value was -0.297. With CCTACTTA the “PBM E-score” value was -0.287. In the case of ACAGACAA, the “PBM E-score” value is reported as 0.182. In the case of AAGTCTCT, the “PBM E-score” value is reported as -0.212. AGACGGGC was tested, and the “PBM E-score” value was 0.0127. ATCTACAG was tested, and the “PBM E-score” value was -0.142. With CAATGTGA the “PBM E-score” value was -0.127. With GAGCTCAC the “PBM E-score” value was -0.0272. In the case of AGAGATGC, the “PBM E-score” value is reported as -0.0736. ATGTCCAG was tested, and the “PBM E-score” value was -0.0894. ATCCGGAT was tested, and the “PBM E-score” value was -0.0213. In the case of ATCCGGTA, the “PBM E-score” value is reported as 0.131. With AGAATTTC the “PBM E-score” value was 0.0483. With GGATCGAC the “PBM E-score” value was 0.0502. In the case of ACCGTACG, the “PBM E-score” value is reported as 0.385. For ACAACCCT, the “PBM E-score” value was 0.0246. With ATTTGAAA the “PBM E-score” value was -0.0418. In the case of ACATCAAA, the “PBM E-score” value is reported as -0.0956. In the case of CCAAAGGA, the “PBM E-score” value is reported as -0.169. In the case of CCAGGTAG, the “PBM E-score” value is reported as -0.235. In the case of CAGTCCAC, the “PBM E-score” value is reported as -0.229. In the case of ATCAGGAT, the “PBM E-score” value is reported as 0.201. With CTTCAAAG the “PBM E-score” value was -0.128. With ATGTACAG the “PBM E-score” value was -0.0973. With GCTTATCC the “PBM E-score” value was 0.0216. With CAATTCGA the “PBM E-score” value was 0.0138. For CGACGTAG, the “PBM E-score” value was 0.0865. For CAGTTTTA, the “PBM E-score” value was -0.181. With ACTAAAGA the “PBM E-score” value was -0.0113. With ACCCTAGA the “PBM E-score” value was -0.0449. For CGTGAGGA, the “PBM E-score” value was -0.134. With ACTCAACA the “PBM E-score” value was -0.109. In the case of GGACCGCA, the “PBM E-score” value is reported as -0.00768. AGACGCAG was tested, and the “PBM E-score” value was -0.0192. With CTTACCGC the “PBM E-score” value was 0.027. CTACCAAC was tested, and the “PBM E-score” value was 0.0568. AGTTACCC was tested, and the “PBM E-score” value was 0.0506. In the case of GCCAATGA, the “PBM E-score” value is reported as -0.193. GACGCTGC was tested, and the “PBM E-score” value was -0.121. With AACTCCTA the “PBM E-score” value was -0.059. For AGATATTG, the “PBM E-score” value was -0.149. With GAGGACTC the “PBM E-score” value was -0.139. For CCGTTTGC, the “PBM E-score” value was 0.212. For CAAGGCAC, the “PBM E-score” value was -0.123. GTAGTTCA was tested, and the “PBM E-score” value was -0.0814. CCCCGGGC was tested, and the “PBM E-score” value was -0.274. With CTGTGGAC the “PBM E-score” value was -0.295. TATAAGCA was tested, and the “PBM E-score” value was 0.0538. For GTACCTGA, the “PBM E-score” value was 0.149. For AAGCACTG, the “PBM E-score” value was 0.0316. With AATATGCT the “PBM E-score” value was 0.019. ACGAATCA was tested, and the “PBM E-score” value was 0.302. In the case of CGGCCATC, the “PBM E-score” value is reported as -0.22. With CAATCCTC the “PBM E-score” value was -0.148. In the case of TAATGTGA, the “PBM E-score” value is reported as -0.00382. With ATGGAGCC the “PBM E-score” value was -0.206. With AGAAGTTG the “PBM E-score” value was -0.00704. AGTGGGGG was tested, and the “PBM E-score” value was -0.368. CACCGGCG was tested, and the “PBM E-score” value was -0.0848. For AATACTGT, the “PBM E-score” value was 0.158. With AACCTGAT the “PBM E-score” value was -0.0867. For AATATAAG, the “PBM E-score” value was 0.0324. With CCAGCTTA the “PBM E-score” value was -0.123. For GGCAGAGA, the “PBM E-score” value was -0.119. For TGACGCAA, the “PBM E-score” value was -0.215. In the case of AACTGCAT, the “PBM E-score” value is reported as -0.00243. With ATTTTGCG the “PBM E-score” value was 0.193.
